Experimental data from the RNAGym collection of RNA variant scans (doi:10.7554/elife.90254).
Read counts are not given, so values of variants with three or more changes are uncertain.

B1: OR4K15 (parent)
chain: GUUAACGGUCAUAGGCCAUGGAAACUAGGAGCACCAUUUCGCUGCCAGUGAAGAAAUGAACAAAGAAAAUCUGGGCCAGGCAGGCAUCAAAAGAAAUAGUCUUGCGCUCAACCAGAAAGUCUGUAAUCAUUUUAAGGGUA

Variants of: B1
Assay: self-cleavage, relative activity (ratio to wild type); higher = more cleavage; in vitro, sequencing; the parent is a self-cleaving ribozyme
For C101A C109U U130C, the self-cleavage was 0.04.
Work on A98U U108G A114G yielded a self-cleavage of 0.02.
With A82G A96U A134G the self-cleavage was 0.15.
A96G G106A A114G gave a self-cleavage of 0.01.
Variant A111G A118C U132C has a self-cleavage of 0.
Work on A96G A114G U132C yielded a self-cleavage of 0.15.
Work on A86G U103C U132C yielded a self-cleavage of 1.04.
Work on A82U A114G C121U U122C yielded a self-cleavage of 0.01.
A90G A91G U108G A110U showed a self-cleavage of 0.
U102A U103C A114U showed a self-cleavage of 0.01.
A96C U100G U122G gave a self-cleavage of 2.22.
Variant A86G A95G A118G has a self-cleavage of 2.22.
In the case of U100C A114G A125U, the self-cleavage is reported as 1.28.
With A90G A92G A95C the self-cleavage was 0.59.
In the case of A95G U131C G137A, the self-cleavage is reported as 1.53.
For A89G A125G U130G A140G, the self-cleavage was 0.09.
Variant U103C A111G U131C has a self-cleavage of 0.02.
For A95G U124C U127C A135G, the self-cleavage was 1.08.
For A89G A94C A110U, the self-cleavage was 1.17.
A89U C113A A117G U127A gave a self-cleavage of 0.02.
For U87C A90G A135U, the self-cleavage was 0.28.
U103A A117G U122C gave a self-cleavage of 0.76.
In the case of U103C A111G A114U A116G A125G, the self-cleavage is reported as 0.
A82G U100C G104A gave a self-cleavage of 0.03.
Work on A94G A118G U131C yielded a self-cleavage of 0.44.
Variant U100C U103C U120C U122A has a self-cleavage of 1.66.
In the case of U97A U122C U139G, the self-cleavage is reported as 1.31.
A91G G106A A129G showed a self-cleavage of 0.01.
Variant A92G U102G A129C has a self-cleavage of 0.12.
Work on A92G U108C A129G yielded a self-cleavage of 0.
For A92G A117G U122A, the self-cleavage was 2.19.
In the case of U102C U122C A135G, the self-cleavage is reported as 1.42.
Variant A86G A91G A134G has a self-cleavage of 0.05.
Work on A111G A114G A118G A129G yielded a self-cleavage of 0.
A89U A90G A140G gave a self-cleavage of 1.11.
With A94U A117G A135G the self-cleavage was 1.
With U108C A111U U124C the self-cleavage was 0.
With U100C U108C U127C the self-cleavage was 0.
A89C A96G A140G showed a self-cleavage of 1.51.
A95G A116U U127C showed a self-cleavage of 0.02.
With A95G U103C A126G U132A the self-cleavage was 1.16.
Variant A91G A94U U132C has a self-cleavage of 0.54.
Work on A92G A98G U127C yielded a self-cleavage of 0.2.
Variant A82U U103C U120A has a self-cleavage of 0.05.
Variant U102C A116G A129G has a self-cleavage of 0.42.
A94G A126G U130G gave a self-cleavage of 0.28.
In the case of U87A A94G U108C U139A, the self-cleavage is reported as 0.01.
Work on U97C A111G G136A yielded a self-cleavage of 0.03.
In the case of A89G U108C U130C, the self-cleavage is reported as 0.01.
Variant A117U U124C U130C has a self-cleavage of 0.36.
In the case of A86U A89U A96U A117G, the self-cleavage is reported as 0.15.
With A82G A114G U132C the self-cleavage was 0.04.
In the case of A94G A129U A135G, the self-cleavage is reported as 0.95.
G83U U102G A125G A135G showed a self-cleavage of 0.32.
A89U A94G A116G gave a self-cleavage of 0.98.
For U100C U122C U127A, the self-cleavage was 2.4.
A92U U102C U108C gave a self-cleavage of 0.
With A86G A90G U100C the self-cleavage was 2.07.
In the case of U108C A116G A135G, the self-cleavage is reported as 0.
A118G U131C A135G showed a self-cleavage of 0.19.
In the case of A94G A110G A116G, the self-cleavage is reported as 0.02.
A96U U100C A118G showed a self-cleavage of 2.75.
A82U A95G U132C gave a self-cleavage of 0.49.
Variant U87C A95G A114G has a self-cleavage of 0.38.
In the case of U87C U120C U131C, the self-cleavage is reported as 0.19.
For A89G A94G A134U, the self-cleavage was 1.38.
U103C A129G A134G showed a self-cleavage of 0.55.
A91G A92U U97C showed a self-cleavage of 0.35.
U87C A94U U102A A118G gave a self-cleavage of 0.6.
With A89C U100C U102C the self-cleavage was 1.01.
Work on U87G A96U U131C yielded a self-cleavage of 0.44.
A82G A96G A118G A134G showed a self-cleavage of 0.15.
For A89G A92G A94G A118U, the self-cleavage was 0.22.
In the case of A96G U100C A126U, the self-cleavage is reported as 1.78.
For A91G U97C U124A A126G, the self-cleavage was 0.36.
In the case of A90G U102C A129G, the self-cleavage is reported as 2.26.
For U87C A114U U127C A129U, the self-cleavage was 0.01.
With A90G A98G A117C the self-cleavage was 0.35.
For U102C A135U G137U, the self-cleavage was 2.07.
A82U A91G A116G gave a self-cleavage of 0.09.
A92G A116G A118G showed a self-cleavage of 0.33.
For A86U A89G G115A, the self-cleavage was 0.42.
Work on A90G A95G U122C yielded a self-cleavage of 2.
With A91G A94G U108A the self-cleavage was 0.03.
For A91G U108C G138C, the self-cleavage was 0.
In the case of A91G U122A A129G G136U, the self-cleavage is reported as 0.3.
Work on A82U A95G U124A yielded a self-cleavage of 0.29.
With A90G U103C A129U the self-cleavage was 0.4.
A95G U122C A126G showed a self-cleavage of 1.
A89U A90G A96G G106A G137U showed a self-cleavage of 0.02.
In the case of A96G U100A A116G, the self-cleavage is reported as 0.11.
In the case of A94G A98G U100C, the self-cleavage is reported as 1.59.
U87C A111U U120C showed a self-cleavage of 0.01.
U102A A110U A114G showed a self-cleavage of 0.03.
Variant A86G U100C U132C has a self-cleavage of 2.47.
Work on A110U A116G A129C U131C yielded a self-cleavage of 0.97.
A82G A92G A116G gave a self-cleavage of 0.21.
Variant A92G A94G U102C has a self-cleavage of 1.07.
Work on U87C A91G A116U yielded a self-cleavage of 0.03.
With A98G C107U A117G U130C the self-cleavage was 0.
For A118G U120C U124A A126G A135G, the self-cleavage was 0.09.
Variant A110G G123A U124C has a self-cleavage of 0.16.
In the case of A82U U87C A129G A135G, the self-cleavage is reported as 0.06.
U87C A94G U97C A114G showed a self-cleavage of 0.16.
Variant U103C U108C A111G has a self-cleavage of 0.
Variant A98U A111G A114U has a self-cleavage of 0.
U100C U108C A125G showed a self-cleavage of 0.
With A92G A114U U130C the self-cleavage was 0.02.
For U108C U120C U127C, the self-cleavage was 0.01.
In the case of A96G A111G A118G C128U, the self-cleavage is reported as 0.02.
A94G U103C U108C U120C showed a self-cleavage of 0.
A86G A95G U103C gave a self-cleavage of 0.45.
In the case of A82U A94G A126U, the self-cleavage is reported as 0.16.
Work on U100C U131C U133A yielded a self-cleavage of 2.07.
In the case of G84A A92G U122C U131G, the self-cleavage is reported as 0.64.
In the case of G83A G106A U130C, the self-cleavage is reported as 0.01.
For A118G A129C U130C, the self-cleavage was 0.21.
With A91G A96G U108A the self-cleavage was 0.01.
A91G A98G U132C gave a self-cleavage of 0.18.
A91G C109U A135G showed a self-cleavage of 0.24.
Work on A111U A116U U130C A135C yielded a self-cleavage of 0.
Work on A89G A94G A118U yielded a self-cleavage of 0.89.
For U103C U122C U133C, the self-cleavage was 0.69.
In the case of A118G U122C U130C, the self-cleavage is reported as 0.57.
For G99A A111G A116G U131C, the self-cleavage was 0.
Work on A94G A98G U132C yielded a self-cleavage of 0.54.
U87C A116G U131A showed a self-cleavage of 0.19.
For A86G U102C U122C, the self-cleavage was 2.07.
A82G G106A A135U gave a self-cleavage of 0.01.
With A82U A126G A140G the self-cleavage was 0.16.
In the case of A82U A95G A126G, the self-cleavage is reported as 0.14.
In the case of A117G U120C U124A U132C, the self-cleavage is reported as 0.66.
G83A A91G U103C showed a self-cleavage of 0.15.
Work on A111G A114G A134G yielded a self-cleavage of 0.01.
With A92U A94G A117G the self-cleavage was 1.24.
Variant A82U A90G A95G has a self-cleavage of 0.29.
With A110G U130C U131C the self-cleavage was 0.04.
With A92U A95G U120C the self-cleavage was 1.49.
Variant U97A A111G U131C has a self-cleavage of 0.01.
In the case of A90U U97A A117G, the self-cleavage is reported as 2.93.
A111G A114U A134G gave a self-cleavage of 0.
For A91G U127A A135G, the self-cleavage was 2.29.
Variant A90G A118U A126G U132C has a self-cleavage of 0.11.
A90G A94G U108G showed a self-cleavage of 0.02.
Work on A96G U102A U103C U108A A111G A114G yielded a self-cleavage of 0.
With A89G U102A U130C A135G A140G the self-cleavage was 0.53.
With U87C U103C U124A the self-cleavage was 0.42.
Work on U102C A110G U130C yielded a self-cleavage of 0.12.
For A98U C112U A135G, the self-cleavage was 0.02.
A82U A118G U122C gave a self-cleavage of 0.07.
Variant A95G U139C A140U has a self-cleavage of 2.28.
Variant U87C U103C U130C has a self-cleavage of 0.49.
With A82U A86G A91U the self-cleavage was 0.2.
U102C A118G U122G A126G showed a self-cleavage of 2.78.
A89G A90G U127C showed a self-cleavage of 0.37.
For U87C A114U A135G, the self-cleavage was 0.03.
With A89U U97A A98G U132C the self-cleavage was 2.94.
With A89G A91G U103C U122C the self-cleavage was 0.1.
Work on A110G A114G U139C yielded a self-cleavage of 0.05.
Work on A90G A111G A118U yielded a self-cleavage of 0.
For U102C A125G U131C, the self-cleavage was 0.73.
Variant U100A A110G A111G A117G has a self-cleavage of 0.01.
Variant A86U U87C U103C A116G U130C has a self-cleavage of 0.08.
In the case of U87C U103C U120C, the self-cleavage is reported as 0.18.
A91G U108A A116G gave a self-cleavage of 0.01.
Work on U87C U100C U108C A114U U133A yielded a self-cleavage of 0.
With U100C U102A U133C the self-cleavage was 1.78.
